{"source": "the supplement of paper PMC8728848", "binders": {"B1": {"name": "LSectin (Mus musculus), Q8BNX1 (protein)", "chain": "MNTGEYNKLGSAIEEVSRGQLGRWECYKQRLFFLVLALLVATVLWALILSTLLSSASSKLRVLLSHQDLLRTNASEQKMTLSSLKDDIGACRNCCSVTKAQLQTTLAEFKDIQAKLMEQESILKELQERVTQDLAKASRDRENIRSELFQALEAVKRQNSSCEQCPPSWLPFQGSCYYFSETQATWDTAQSYCGGQGAHLVIVRGLNEQGFLSQHTRGRGYWLGLRAVRHLNKIQGYRWVDGASLNFSHWNSGEPNDSRGHEDCIMMLHSGLWNDAPCTNERDGWICEKRSSCY"}}, "assay_in_all_cases": "glycan array binding signal (z-score within array); higher = stronger binding", "settings_in_all_cases": "glycan notation: IUPAC condensed, linker removed", "key": {"[1]": {"target": "Neu5Ac(a2-6)Gal(b1-4)GlcNAc(b1-3)Gal(b1-3)GlcNAc", "how_it_was_run": "(§1)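 The binding signal is a Z-score computed within each array. Data were drawn from 3228 arrays in the Consortium for Functional Glycomics database, restricted to those with a known protein sequence. Scores were averaged over arrays of the same protein sequence at different concentrations or buffers, and over linkers, and negative values can be taken as non-binding.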"}, "[2]": {"target": "Neu5Ac(a2-6)Gal(b1-4)GlcNAc(b1-3)Gal(b1-4)GlcNAc", "how_it_was_run": "as §1"}, "[3]": {"target": "Neu5Ac(a2-6)Gal(b1-4)GlcNAc(b1-3)Gal(b1-4)GlcNAc(b1-3)Gal(b1-4)GlcNAc", "how_it_was_run": "as §1"}, "[4]": {"target": "Neu5Ac(a2-6)Gal(b1-4)GlcNAc(b1-3)Gal(b1-4)[Fuc(a1-3)]GlcNAc(b1-3)Gal(b1-4)[Fuc(a1-3)]GlcNAc", "how_it_was_run": "as §1"}, "[5]": {"target": "Neu5Ac(a2-6)Gal(b1-4)GlcNAc(b1-3)GalNAc", "how_it_was_run": "as §1"}, "[6]": {"target": "Neu5Ac(a2-6)Gal(b1-4)GlcNAc6S", "how_it_was_run": "as §1"}, "Neu5Ac(a2-6)GalNAc": {"target": "Neu5Ac(a2-6)GalNAc", "how_it_was_run": "as §1"}, "[7]": {"target": "Neu5Ac(a2-6)GalNAc(b1-4)GlcNAc", "how_it_was_run": "as §1"}, "[8]": {"target": "Neu5Ac(a2-6)GlcNAc(b1-4)GlcNAc", "how_it_was_run": "as §1"}, "[9]": {"target": "Neu5Ac(a2-6)GlcNAc(b1-4)GlcNAc(b1-4)GlcNAc", "how_it_was_run": "as §1"}, "Neu5Ac(a2-8)Neu5Ac": {"target": "Neu5Ac(a2-8)Neu5Ac", "how_it_was_run": "as §1"}, "[10]": {"target": "Neu5Ac(a2-8)Neu5Ac(a2-3)Gal(b1-4)Glc", "how_it_was_run": "as §1"}, "[11]": {"target": "Neu5Ac(a2-8)Neu5Ac(a2-3)[Gal(b1-3)GalNAc(b1-4)]Gal(b1-4)Glc", "how_it_was_run": "as §1"}, "[12]": {"target": "Neu5Ac(a2-8)Neu5Ac(a2-3)[GalNAc(b1-4)]Gal(b1-4)Glc", "how_it_was_run": "as §1"}, "[13]": {"target": "Neu5Ac(a2-8)Neu5Ac(a2-8)Neu5Ac", "how_it_was_run": "as §1"}, "[14]": {"target": "Neu5Ac(a2-8)Neu5Ac(a2-8)Neu5Ac(a2-3)Gal(b1-4)Glc", "how_it_was_run": "as §1"}, "[15]": {"target": "Neu5Ac(a2-8)Neu5Ac(a2-8)Neu5Ac(a2-3)[GalNAc(b1-4)]Gal(b1-4)Glc", "how_it_was_run": "as §1"}, "[16]": {"target": "Neu5Ac(a2-8)Neu5Ac(a2-8)Neu5Ac(a2-8)Neu5Ac(a2-3)[GalNAc(b1-4)]Gal(b1-4)Glc", "how_it_was_run": "as §1"}, "[17]": {"target": "Neu5Ac(b2-6)Gal(b1-4)GlcNAc", "how_it_was_run": "as §1"}, "Neu5Ac(b2-6)GalNAc": {"target": "Neu5Ac(b2-6)GalNAc", "how_it_was_run": "as §1"}, "[18]": {"target": "Neu5Ac9Ac(a2-3)Gal(b1-3)GlcNAc", "how_it_was_run": "as §1"}, "[19]": {"target": "Neu5Ac9Ac(a2-3)Gal(b1-4)GlcNAc", "how_it_was_run": "as §1"}, "[20]": {"target": "Neu5Ac9Ac(a2-6)Gal(b1-4)GlcNAc", "how_it_was_run": "as §1"}, "[21]": {"target": "Neu5Gc(a2-3)Gal(b1-3)GlcNAc", "how_it_was_run": "as §1"}, "[22]": {"target": "Neu5Gc(a2-3)Gal(b1-3)[Fuc(a1-4)]GlcNAc", "how_it_was_run": "as §1"}, "Neu5Gc(a2-3)Gal(b1-4)Glc": {"target": "Neu5Gc(a2-3)Gal(b1-4)Glc", "how_it_was_run": "as §1"}, "[23]": {"target": "Neu5Gc(a2-3)Gal(b1-4)GlcNAc", "how_it_was_run": "as §1"}, "[24]": {"target": "Neu5Gc(a2-3)Gal(b1-4)[Fuc(a1-3)]GlcNAc", "how_it_was_run": "as §1"}, "[25]": {"target": "Neu5Gc(a2-6)Gal(b1-4)GlcNAc", "how_it_was_run": "as §1"}, "Neu5Gc(a2-6)GalNAc": {"target": "Neu5Gc(a2-6)GalNAc", "how_it_was_run": "as §1"}, "[26]": {"target": "Neu5Gc(b2-6)Gal(b1-4)GlcNAc", "how_it_was_run": "as §1"}}, "note": "This is one part of the list."}
{"binder": "B1", "values": [{"measurement": "glycan array binding signal (z-score)", "setting": "[1]", "value": -0.187}, {"measurement": "glycan array binding signal (z-score)", "setting": "[2]", "value": -0.175}, {"measurement": "glycan array binding signal (z-score)", "setting": "[3]", "value": -0.182}, {"measurement": "glycan array binding signal (z-score)", "setting": "[4]", "value": -0.166}, {"measurement": "glycan array binding signal (z-score)", "setting": "[5]", "value": -0.187}, {"measurement": "glycan array binding signal (z-score)", "setting": "[6]", "value": -0.152}, {"measurement": "glycan array binding signal (z-score)", "setting": "Neu5Ac(a2-6)GalNAc", "value": 0.717}, {"measurement": "glycan array binding signal (z-score)", "setting": "[7]", "value": 3.69}, {"measurement": "glycan array binding signal (z-score)", "setting": "[8]", "value": -0.18}, {"measurement": "glycan array binding signal (z-score)", "setting": "[9]", "value": -0.185}, {"measurement": "glycan array binding signal (z-score)", "setting": "Neu5Ac(a2-8)Neu5Ac", "value": -0.178}, {"measurement": "glycan array binding signal (z-score)", "setting": "[10]", "value": -0.158}, {"measurement": "glycan array binding signal (z-score)", "setting": "[11]", "value": -0.183}, {"measurement": "glycan array binding signal (z-score)", "setting": "[12]", "value": -0.173}, {"measurement": "glycan array binding signal (z-score)", "setting": "[13]", "value": -0.178}, {"measurement": "glycan array binding signal (z-score)", "setting": "[14]", "value": -0.185}, {"measurement": "glycan array binding signal (z-score)", "setting": "[15]", "value": -0.159}, {"measurement": "glycan array binding signal (z-score)", "setting": "[16]", "value": -0.179}, {"measurement": "glycan array binding signal (z-score)", "setting": "[17]", "value": -0.172}, {"measurement": "glycan array binding signal (z-score)", "setting": "Neu5Ac(b2-6)GalNAc", "value": -0.18}, {"measurement": "glycan array binding signal (z-score)", "setting": "[18]", "value": -0.187}, {"measurement": "glycan array binding signal (z-score)", "setting": "[19]", "value": -0.187}, {"measurement": "glycan array binding signal (z-score)", "setting": "[20]", "value": -0.16}, {"measurement": "glycan array binding signal (z-score)", "setting": "[21]", "value": -0.164}, {"measurement": "glycan array binding signal (z-score)", "setting": "[22]", "value": -0.167}, {"measurement": "glycan array binding signal (z-score)", "setting": "Neu5Gc(a2-3)Gal(b1-4)Glc", "value": -0.168}, {"measurement": "glycan array binding signal (z-score)", "setting": "[23]", "value": -0.156}, {"measurement": "glycan array binding signal (z-score)", "setting": "[24]", "value": -0.163}, {"measurement": "glycan array binding signal (z-score)", "setting": "[25]", "value": -0.154}, {"measurement": "glycan array binding signal (z-score)", "setting": "Neu5Gc(a2-6)GalNAc", "value": -0.136}, {"measurement": "glycan array binding signal (z-score)", "setting": "[26]", "value": -0.158}]}
